# Publication PMC4336329 (PLoS ONE, 2015)
# About 2,200 (0.71%) of roughly 310,000 compounds showed an effect of 50% or more. The effect is printed as a negative number. The list shows a part of the results.
# Target: human ether-à-go-go-related gene (hERG) potassium channel (human, UniProt Q12809)
# Experiment: primary screen, population patch clamp on CHO cells stably expressing hERG
# human ether-à-go-go-related gene (hERG) potassium channel, sequence (Q12809 whole entry, looked up): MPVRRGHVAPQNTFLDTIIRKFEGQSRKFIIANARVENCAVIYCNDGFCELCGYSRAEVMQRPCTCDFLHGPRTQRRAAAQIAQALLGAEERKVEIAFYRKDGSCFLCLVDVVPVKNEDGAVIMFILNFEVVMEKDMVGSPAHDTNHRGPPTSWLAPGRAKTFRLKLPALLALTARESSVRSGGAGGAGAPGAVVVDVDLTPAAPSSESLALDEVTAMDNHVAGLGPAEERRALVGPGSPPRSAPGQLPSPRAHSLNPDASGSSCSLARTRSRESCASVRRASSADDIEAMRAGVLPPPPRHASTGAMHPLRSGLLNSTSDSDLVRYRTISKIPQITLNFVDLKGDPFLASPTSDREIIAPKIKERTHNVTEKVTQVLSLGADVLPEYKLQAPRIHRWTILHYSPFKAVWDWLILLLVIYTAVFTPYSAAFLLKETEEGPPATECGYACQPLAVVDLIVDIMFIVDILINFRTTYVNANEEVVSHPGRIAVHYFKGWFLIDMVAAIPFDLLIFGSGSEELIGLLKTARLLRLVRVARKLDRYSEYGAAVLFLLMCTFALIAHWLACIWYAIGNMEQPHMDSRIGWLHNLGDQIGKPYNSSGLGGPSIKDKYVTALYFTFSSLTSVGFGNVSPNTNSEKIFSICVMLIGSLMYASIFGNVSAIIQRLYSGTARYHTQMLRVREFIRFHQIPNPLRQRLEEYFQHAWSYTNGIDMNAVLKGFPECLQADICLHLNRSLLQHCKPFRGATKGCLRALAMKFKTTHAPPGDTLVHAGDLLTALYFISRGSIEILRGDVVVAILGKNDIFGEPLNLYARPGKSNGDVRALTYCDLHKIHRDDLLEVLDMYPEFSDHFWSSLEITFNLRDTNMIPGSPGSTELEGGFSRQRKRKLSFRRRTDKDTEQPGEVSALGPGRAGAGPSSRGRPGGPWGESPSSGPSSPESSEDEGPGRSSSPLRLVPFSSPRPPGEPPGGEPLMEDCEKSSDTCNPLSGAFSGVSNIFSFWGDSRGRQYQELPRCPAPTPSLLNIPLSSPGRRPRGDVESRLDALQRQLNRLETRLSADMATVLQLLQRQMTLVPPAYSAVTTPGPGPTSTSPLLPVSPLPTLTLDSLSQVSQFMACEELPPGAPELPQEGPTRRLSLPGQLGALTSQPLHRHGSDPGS
row,SMILES,"hERG current change (%, negative = inhibition) at 1uM [%]"
1,Cn1nc(C(=O)N2CCN(c3ccc([N+](=O)[O-])cc3)CC2)c2c1-c1ccccc1S(=O)(=O)C2,1.12
2,COc1cccc(CNCc2cccnc2)c1OCc1ccccc1.Cl,29.4
3,O=C(O)Cc1ccc(NC(=O)Nc2ccc3c(c2)OCO3)cc1,13.2
4,Cc1ccc(S(=O)(=O)CCC(=O)Nc2ccc(F)cc2)cc1,10.9
5,N#CCSc1nnc(-c2ccccc2)c(-c2ccccc2)n1,10.8
6,C=CCOC(=O)C1=C(C)NC(C)=C(C(=O)OCC=C)C1c1ccc(C)o1,7.99
7,CCC(C)NC(=O)C1CN(S(=O)(=O)c2ccccc2)CCN1S(=O)(=O)c1ccccc1 (stereo not drawn),4.36
8,CS(=O)(=O)c1ncc(Cl)c(C(=O)Nc2ccc(OC(F)F)cc2)n1,17.2
9,COc1ccc(C(=O)NNC(=O)c2cc(C)nc3ccccc23)cc1,9.65
10,Cc1ccc(F)c(NC=C2C(=O)OC(C)(C)OC2=O)c1,-5.32
11,Cc1cc(C)c(C(=O)C(C)OC(=O)c2ccccn2)cc1C (stereo not drawn),14.6
12,CN(CC(=O)Nc1cccc(F)c1)C(=O)c1cc(-c2cccs2)nn1-c1ccccc1,11.3
13,CCCCC(=O)Nc1cccn2ncnc12,11.9
14,CCOc1ccccc1C(=O)NC1CC2CCCC(C1)N2C1CC1 (stereo not drawn),9.64
15,CC(C)(C)c1cc(C=C(C#N)C#N)cc(C(C)(C)C)c1O,15.1
16,COc1cc(CN2CC(=O)N(c3ccc(C)cc3)C2=S)cc(OC)c1OC,7.3
17,O=C(O)/C(=C\c1ccccc1)c1ccccc1,6.19
18,CC(C)OC(=O)/C(=C\c1ccccc1)NC(=O)c1ccccc1,9.47
19,CCCCOC(=O)Nc1ccc(S(=O)(=O)Nc2cc(C)nc(C)n2)cc1,12.6
20,COc1ccc(-n2c(-c3ccc(Cl)cc3)c[nH]c2=S)cc1,22.7
21,COc1ccc(C(=O)NCC2(c3ccccc3)CCCC2)c(OC)c1,-1.75
22,CCOC(=O)c1ccc(NC(=O)CC2SCCNC2=O)cc1 (stereo not drawn),14.1
23,C=CCn1c(SCC(=O)Nc2ccc3c(c2)CCC3)nc2ccccc2c1=O,11

row,SMILES,"hERG current change (%, negative = inhibition) at 1uM [%]"
1,CC(OC(=O)Cn1cnc2ccccc2c1=O)C(=O)N(C)c1ccccc1 (stereo not drawn),3.98
2,NS(=O)(=O)c1ccc(CNC(=O)Cn2nc(C(F)F)cc2C(F)F)cc1,3.37
3,CC1=CC=CC2=NC(=O)CC(C)(C(=O)N(CC(=O)NC3CCCC3)c3ccc(F)cc3)N12 (stereo not drawn),11.1
4,COc1ccc(C(=O)NCC2(c3ccccc3)CCOCC2)cc1[N+](=O)[O-],5.38
5,O=C(Nc1ccccc1C(=O)NCC1CCCO1)c1ccc(Cl)cc1Cl (stereo not drawn),-4.44
6,Cc1nnc(C)c2c(C)n(-c3ccc(Cl)c(N)c3)c(C)c12,4.32
7,COC(=O)c1c(NC(=O)c2ccc(S(=O)(=O)N3CCOCC3)cc2)sc2c1CCN(C)C2.Cl,-1.22
8,O=C1c2cccc3c(O)ccc(c23)C(=O)N1c1ccc(Cl)cc1,4.49
9,O=C(N[C@@H](Cc1c[nH]c2ccccc12)C(=O)NC1CC1)c1ccccc1Cl,12.5
10,CSc1cccc(-c2nnc(NC(=O)c3cccc(N4C(=O)CCC4=O)c3)o2)c1,12.9
11,COc1ccc(C(=O)N2CCCC2)cc1,3.13
12,CCCCN1C(N)=NC[C@@H]1Cc1ccccc1,7.48
13,CCOc1ccc2nc(SCC(=O)NC3CCCc4ccccc43)sc2c1 (stereo not drawn),13.2
14,C=CCc1ccc(OCCCCN2CC(C)CC(C)C2)c(OC)c1.O=C(O)C(=O)O (stereo not drawn),-18.2
15,CC(C)(C)OC(=O)N1CCC(Cc2cc(-c3ccc(Cl)cc3)no2)(C(=O)O)CC1,3.67
16,Cc1cc(C)cc(NC(=O)c2sc3nc(C)cc(C)c3c2N)c1,16.4
17,CC(C)OC(=O)CC(=O)CSc1nc(-c2ccc(F)cc2)cc(-c2ccccc2)c1C#N,5.99
18,CN(CC(=O)Nc1c(Cl)cccc1Cl)C(=O)c1cc2ccccc2cc1O,8.94
19,CC(=O)c1c(O)c2ccccc2n(C(C)C)c1=O,17.2
20,Cc1cccc(NC(=O)NCCN2CCCCC2)c1,-1.66
21,CC1CN(C(=O)N2c3ccccc3Sc3ccccc32)C(C)CC1=O (stereo not drawn),12.6
22,O=C(NC(=S)Nc1ccc(N2CCOCC2)cc1)c1cccc(Cl)c1Cl,3.33
